# Some of the results follow.
# B1: DBA (Dolichos biflorus) (protein)
# chain: ANIQSFSFKNFNSPSFILQGDATVSSGKLQLTKVKENGFPLRFPSGRAFYSSPIQIYDKFTGAVASWATSFTVKISAPSKASFADGIAFALVPVGSEPRRNGGYLGVFDSDVYNNSAQTVAVEFDTLSNSGWDPSMKHIGIDVNSIKSIATVSWDLANGENAEILITYNAATSLLVVSLVHPSRRTSYILSERVDITNELPEYVGVGFSATTGLSEGYIETHDVLSWSFASRLPDDSTAEPLDLARYLVRNVL
# Experiments:
# Assay in all cases: glycan array binding signal (z-score within array); higher = stronger binding
# Settings in all cases: glycan notation: IUPAC condensed, linker removed
# [1] = target: Neu5Ac(a2-6)Gal(b1-4)GlcNAc(b1-3)Gal(b1-3)GlcNAc
# Summary of the method: (§1)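 The binding signal is a Z-score computed within each array and averaged over linkers. Arrays of the same protein sequence at different concentrations or buffers were also averaged together. Data originate from 3228 arrays in the Consortium for Functional Glycomics database, kept only where the protein sequence was available.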
# [2] = target: Neu5Ac(a2-6)Gal(b1-4)GlcNAc(b1-3)Gal(b1-4)GlcNAc
# Summary of the method: as §1
# [3] = target: Neu5Ac(a2-6)Gal(b1-4)GlcNAc(b1-3)Gal(b1-4)GlcNAc(b1-2)Man(a1-3)[Neu5Ac(a2-6)Gal(b1-4)GlcNAc(b1-3)Gal(b1-4)GlcNAc(b1-2)Man(a1-6)]GalNAc
# Summary of the method: as §1
# [4] = target: Neu5Ac(a2-6)Gal(b1-4)GlcNAc(b1-3)Gal(b1-4)GlcNAc(b1-3)Gal(b1-4)GlcNAc
# Summary of the method: as §1
# [5] = target: Neu5Ac(a2-6)Gal(b1-4)GlcNAc(b1-3)Gal(b1-4)GlcNAc(b1-3)Gal(b1-4)GlcNAc(b1-2)Man(a1-3)[Neu5Ac(a2-6)Gal(b1-4)GlcNAc(b1-3)Gal(b1-4)GlcNAc(b1-3)Gal(b1-4)GlcNAc(b1-2)Man(a1-6)]GalNAc
# Summary of the method: as §1
# [6] = target: Neu5Ac(a2-6)Gal(b1-4)GlcNAc(b1-3)Gal(b1-4)GlcNAc(b1-3)GalNAc
# Summary of the method: as §1
# [7] = target: Neu5Ac(a2-6)Gal(b1-4)GlcNAc(b1-3)Gal(b1-4)GlcNAc(b1-3)[Neu5Ac(a2-6)Gal(b1-4)GlcNAc(b1-3)Gal(b1-4)GlcNAc(b1-6)]GalNAc
# Summary of the method: as §1
# [8] = target: Neu5Ac(a2-6)Gal(b1-4)GlcNAc(b1-3)Gal(b1-4)GlcNAc(b1-6)[Gal(b1-3)]GalNAc
# Summary of the method: as §1
# [9] = target: Neu5Ac(a2-6)Gal(b1-4)GlcNAc(b1-3)Gal(b1-4)[Fuc(a1-3)]GlcNAc(b1-3)Gal(b1-4)[Fuc(a1-3)]GlcNAc
# Summary of the method: as §1
# [10] = target: Neu5Ac(a2-6)Gal(b1-4)GlcNAc(b1-3)GalNAc
# Summary of the method: as §1
# [11] = target: Neu5Ac(a2-6)Gal(b1-4)GlcNAc(b1-3)[Neu5Ac(a2-6)Gal(b1-4)GlcNAc(b1-6)]GalNAc
# Summary of the method: as §1
# [12] = target: Neu5Ac(a2-6)Gal(b1-4)GlcNAc(b1-6)GalNAc
# Summary of the method: as §1
# [13] = target: Neu5Ac(a2-6)Gal(b1-4)GlcNAc(b1-6)[Gal(b1-3)GlcNAc(b1-3)]Gal(b1-4)Glc
# Summary of the method: as §1
# [14] = target: Neu5Ac(a2-6)Gal(b1-4)GlcNAc(b1-6)[Gal(b1-3)]GalNAc
# Summary of the method: as §1
# [15] = target: Neu5Ac(a2-6)Gal(b1-4)GlcNAc6S
# Summary of the method: as §1
# Neu5Ac(a2-6)GalNAc = target: Neu5Ac(a2-6)GalNAc
# Summary of the method: as §1
# [16] = target: Neu5Ac(a2-6)GalNAc(b1-4)GlcNAc
# Summary of the method: as §1
# [17] = target: Neu5Ac(a2-6)GalNAc(b1-4)GlcNAc6S
# Summary of the method: as §1
# [18] = target: Neu5Ac(a2-6)GlcNAc(b1-4)GlcNAc
# Summary of the method: as §1
# [19] = target: Neu5Ac(a2-6)GlcNAc(b1-4)GlcNAc(b1-4)GlcNAc
# Summary of the method: as §1
# Neu5Ac(a2-8)Neu5Ac = target: Neu5Ac(a2-8)Neu5Ac
# Summary of the method: as §1
# [20] = target: Neu5Ac(a2-8)Neu5Ac(a2-3)Gal(b1-3)GalNAc(b1-4)[Neu5Ac(a2-3)]Gal(b1-4)Glc
# Summary of the method: as §1
# [21] = target: Neu5Ac(a2-8)Neu5Ac(a2-3)Gal(b1-3)GalNAc(b1-4)[Neu5Ac(a2-8)Neu5Ac(a2-3)]Gal(b1-4)Glc
# Summary of the method: as §1
# [22] = target: Neu5Ac(a2-8)Neu5Ac(a2-3)Gal(b1-4)Glc
# Summary of the method: as §1
# [23] = target: Neu5Ac(a2-8)Neu5Ac(a2-3)Gal(b1-4)GlcNAc
# Summary of the method: as §1
# [24] = target: Neu5Ac(a2-8)Neu5Ac(a2-3)[Gal(b1-3)GalNAc(b1-4)]Gal(b1-4)Glc
# Summary of the method: as §1
# [25] = target: Neu5Ac(a2-8)Neu5Ac(a2-3)[GalNAc(b1-4)]Gal(b1-4)Glc
# Summary of the method: as §1
# [26] = target: Neu5Ac(a2-8)Neu5Ac(a2-8)Neu5Ac
# Summary of the method: as §1
# [27] = target: Neu5Ac(a2-8)Neu5Ac(a2-8)Neu5Ac(a2-3)Gal(b1-4)Glc
# Summary of the method: as §1
# [28] = target: Neu5Ac(a2-8)Neu5Ac(a2-8)Neu5Ac(a2-3)[Gal(b1-3)GalNAc(b1-4)]Gal(b1-4)Glc
# Summary of the method: as §1
# [29] = target: Neu5Ac(a2-8)Neu5Ac(a2-8)Neu5Ac(a2-3)[GalNAc(b1-4)]Gal(b1-4)Glc
# Summary of the method: as §1
# [30] = target: Neu5Ac(a2-8)Neu5Ac(a2-8)Neu5Ac(a2-8)Neu5Ac(a2-3)[GalNAc(b1-4)]Gal(b1-4)Glc
# Summary of the method: as §1
# [31] = target: Neu5Ac(a2-8)Neu5Gc(a2-3)Gal(b1-4)GlcNAc
# Summary of the method: as §1
# Neu5Ac(b1-6)GalNAc = target: Neu5Ac(b1-6)GalNAc
# Summary of the method: as §1
# [32] = target: Neu5Ac(b2-6)Gal(b1-4)GlcNAc
# Summary of the method: as §1
# Neu5Ac(b2-6)GalNAc = target: Neu5Ac(b2-6)GalNAc
# Summary of the method: as §1
# [33] = target: Neu5Ac9Ac(a2-3)Gal(b1-3)GlcNAc
# Summary of the method: as §1
# [34] = target: Neu5Ac9Ac(a2-3)Gal(b1-4)GlcNAc
# Summary of the method: as §1
# [35] = target: Neu5Ac9Ac(a2-6)Gal(b1-4)GlcNAc
# Summary of the method: as §1
# [36] = target: Neu5Gc(a2-3)Gal(b1-3)GlcNAc
# Summary of the method: as §1
# [37] = target: Neu5Gc(a2-3)Gal(b1-3)[Fuc(a1-4)]GlcNAc
# Summary of the method: as §1
# Neu5Gc(a2-3)Gal(b1-4)Glc = target: Neu5Gc(a2-3)Gal(b1-4)Glc
# Summary of the method: as §1
# [38] = target: Neu5Gc(a2-3)Gal(b1-4)GlcNAc
# Summary of the method: as §1
# [39] = target: Neu5Gc(a2-3)Gal(b1-4)GlcNAc(b1-3)Gal(b1-4)GlcNAc(b1-2)Man(a1-3)[Neu5Gc(a2-3)Gal(b1-4)GlcNAc(b1-3)Gal(b1-4)GlcNAc(b1-2)Man(a1-6)]Man(b1-4)GlcNAc(b1-4)GlcNAc
# Summary of the method: as §1
# [40] = target: Neu5Gc(a2-3)Gal(b1-4)[Fuc(a1-3)]GlcNAc
# Summary of the method: as §1
# [41] = target: Neu5Gc(a2-6)Gal(b1-4)GlcNAc
# Summary of the method: as §1
# Neu5Gc(a2-6)GalNAc = target: Neu5Gc(a2-6)GalNAc
# Summary of the method: as §1
# [42] = target: Neu5Gc(a2-8)Neu5Ac(a2-3)Gal(b1-4)GlcNAc
# Summary of the method: as §1
# [43] = target: Neu5Gc(a2-8)Neu5Gc(a2-3)Gal(b1-4)GlcNAc
# Summary of the method: as §1
# [44] = target: Neu5Gc(a2-8)Neu5Gc(a2-3)Gal(b1-4)GlcNAc(b1-3)Gal(b1-4)GlcNAc
# Summary of the method: as §1
# [45] = target: Neu5Gc(a2-8)Neu5Gc(a2-6)Gal(b1-4)GlcNAc
# Summary of the method: as §1
# [46] = target: Neu5Gc(b2-6)Gal(b1-4)GlcNAc
# Summary of the method: as §1
binder,measurement,setting,value
B1,glycan array binding signal (z-score),[1],-0.136
same,glycan array binding signal (z-score),[2],-0.12
same,glycan array binding signal (z-score),[3],-0.007
same,glycan array binding signal (z-score),[4],-0.1
same,glycan array binding signal (z-score),[5],0.11
same,glycan array binding signal (z-score),[6],-0.08
same,glycan array binding signal (z-score),[7],0.109
same,glycan array binding signal (z-score),[8],-0.032
same,glycan array binding signal (z-score),[9],-0.149
same,glycan array binding signal (z-score),[10],-0.09
same,glycan array binding signal (z-score),[11],-0.095
same,glycan array binding signal (z-score),[12],-0.037
same,glycan array binding signal (z-score),[13],-0.118
same,glycan array binding signal (z-score),[14],-0.042
same,glycan array binding signal (z-score),[15],-0.118
same,glycan array binding signal (z-score),Neu5Ac(a2-6)GalNAc,-0.135
same,glycan array binding signal (z-score),[16],-0.127
same,glycan array binding signal (z-score),[17],-0.11
same,glycan array binding signal (z-score),[18],-0.174
same,glycan array binding signal (z-score),[19],-0.134
same,glycan array binding signal (z-score),Neu5Ac(a2-8)Neu5Ac,-0.121
same,glycan array binding signal (z-score),[20],-0.082
same,glycan array binding signal (z-score),[21],-0.15
same,glycan array binding signal (z-score),[22],-0.158
same,glycan array binding signal (z-score),[23],-0.097
same,glycan array binding signal (z-score),[24],-0.124
same,glycan array binding signal (z-score),[25],-0.114
same,glycan array binding signal (z-score),[26],-0.143
same,glycan array binding signal (z-score),[27],-0.135
same,glycan array binding signal (z-score),[28],-0.044
same,glycan array binding signal (z-score),[29],-0.125
same,glycan array binding signal (z-score),[30],-0.104
same,glycan array binding signal (z-score),[31],-0.086
same,glycan array binding signal (z-score),Neu5Ac(b1-6)GalNAc,-0.172
same,glycan array binding signal (z-score),[32],-0.134
same,glycan array binding signal (z-score),Neu5Ac(b2-6)GalNAc,-0.143
same,glycan array binding signal (z-score),[33],-0.123
same,glycan array binding signal (z-score),[34],-0.116
same,glycan array binding signal (z-score),[35],-0.124
same,glycan array binding signal (z-score),[36],-0.117
same,glycan array binding signal (z-score),[37],-0.136
same,glycan array binding signal (z-score),Neu5Gc(a2-3)Gal(b1-4)Glc,-0.104
same,glycan array binding signal (z-score),[38],-0.116
same,glycan array binding signal (z-score),[39],-0.067
same,glycan array binding signal (z-score),[40],-0.143
same,glycan array binding signal (z-score),[41],-0.106
same,glycan array binding signal (z-score),Neu5Gc(a2-6)GalNAc,-0.113
same,glycan array binding signal (z-score),[42],-0.154
same,glycan array binding signal (z-score),[43],-0.149
same,glycan array binding signal (z-score),[44],-0.122
same,glycan array binding signal (z-score),[45],-0.16
same,glycan array binding signal (z-score),[46],-0.064

# Source: the supplement of paper PMC8728848
